Assay results published in the supplement of paper PMC4166925.
± gives the standard deviation of the averaged measurements. Whole data set: some 33,000 sequences, median “E-score (dimensionless, -0.5 to 0.5)” near -0.049, cut for the highest 2% near 0.37. Some of the results follow.

System: T1, PmTbr T-box DNA-binding domain (GST fusion)
T1 sequence: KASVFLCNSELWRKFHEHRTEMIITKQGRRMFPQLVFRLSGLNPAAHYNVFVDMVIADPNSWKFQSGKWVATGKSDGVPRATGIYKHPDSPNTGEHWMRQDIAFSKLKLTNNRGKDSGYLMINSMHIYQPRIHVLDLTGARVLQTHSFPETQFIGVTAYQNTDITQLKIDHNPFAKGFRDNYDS
Assay: PBM E-score of 8-mer (E-score (dimensionless, -0.5 to 0.5)); Tbr is Tbrain of the sea star Patiria miniata (Pm) or the sea urchin Strongylocentrotus purpuratus (Sp); higher = stronger binding preference; most listed sequences are background and not binding sites
Settings: the construct has about 5 more residues each side
Outline: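 Each ungapped 8-mer received an enrichment E-score from the Universal PBM Analysis Suite, averaged over duplicate arrays. The proteins were Tbr T-box DNA-binding domains, covering the whole T-box plus about five flanking residues, fused to GST and expressed in BL21 E. coli at 20 °C before glutathione affinity purification. Universal Agilent oligonucleotide arrays were made double-stranded by primer extension and incubated with 200 nM protein in PBS (pH 7.5). The arrays were then scanned and quantified, and every 8-mer was scored from probe intensities.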

Sequence	PBM E-score of 8-mer
AGGAATTG	-0.0432 ± 0.0082
GGCCGCGA	0.059 ± 0.048
CCGAGTAG	-0.171 ± 0.034
ATCCCGGG	0.00312 ± 0.013
CAGCTGAA	-0.024 ± 0.019
AGTACCCA	-0.177 ± 0.032
TCCTTAAA	-0.212 ± 0.013
CTGCTCCC	-0.0484 ± 0.044
AAAAGCTA	-0.101 ± 0.02
ATAAAGTA	-0.0182 ± 0.067
CACCCTCA	0.298 ± 0.0064
ACGCCCGG	0.0945 ± 0.077
GGGTTTTA	-0.211 ± 0.095
CGGGGCTA	-0.258 ± 0.01
AAGTCTTG	0.0645 ± 0.0093
CTTTACTC	-0.0347 ± 0.045
CTCCAAGC	-0.0496 ± 0.044
GGGCGCGA	0.409 ± 0.02
AGAGGAAG	-0.183 ± 0.071
CATACATG	-0.123 ± 0.0066
ATGTTACG	0.1 ± 0.0049
ACTCGCAA	0.279 ± 0.018
CAGCCTCC	-0.255 ± 0.081
CCCGCGGC	-0.0345 ± 0.072
CCCTCAGC	-0.0931 ± 0.0017

Sequence	PBM E-score of 8-mer
AAATCACG	0.209 ± 0.011
AGCCCCGG	-0.359 ± 0.042
GGCCTCAA	-0.252 ± 0.027
GATCAACA	0.133 ± 0.01
CGTGAGAC	0.258 ± 0.044
AAACCTGG	0.119 ± 0.037
CACGAGCA	-0.0317 ± 0.022
ATCCGCGC	0.15 ± 0.057
TCCGCAGA	-0.123 ± 0.012
AATCTCGG	-0.154 ± 0.099
ACTCACCT	0.277 ± 0.026
AAAGAGCA	-0.2 ± 0.047
GTTACCAA	0.132 ± 0.073
ACAGAGTC	-0.0931 ± 0.054
GTTGCTCA	0.0245 ± 0.051
GAGTTTCC	-0.227 ± 0.046
CGGGACAG	-0.0992 ± 0.082
AGCGCCAA	0.225 ± 0.013
CCGAGAGA	-0.0578 ± 0.037
CGGACAGC	-0.127 ± 0.094
AACTCATA	-0.0686 ± 0.049
AGTTATAT	-0.0486 ± 0.05
ACGCGCGA	0.3693 ± 0.0027
GTACGAAA	0.127 ± 0.066
ACTCTAGG	-0.109 ± 0.012

Sequence	PBM E-score of 8-mer
GAACTATA	-0.22 ± 0.041
AGGGCCTG	-0.183 ± 0.029
GAACATTA	-0.0348 ± 0.063
ATTGCCTG	-0.196 ± 0.12
AACTGATG	0.0361 ± 0.047
CACGGATG	0.0888 ± 0.0054
CCATCACA	0.331 ± 0.023
AAGCGCCC	-0.0238 ± 0.0037
AAAGGGTA	-0.131 ± 0.079
TCAAATCA	-0.159 ± 0.042
CGAGTCTA	-0.226 ± 0.063
CAAGGGGA	-0.0708 ± 0.017
AAAAACCT	-0.0792 ± 0.056
CTGCCCGA	-0.0419 ± 0.069
AGTATTAG	-0.0488 ± 0.059
AGCAACCA	-0.0688 ± 0.013
CGGTGACC	0.08 ± 0.029
AAATCGGC	-0.118 ± 0.01
CAATGTCC	-0.128 ± 0.037
ATCAGCCC	-0.282 ± 0.03
CCATATTC	0.000255 ± 0.05
ACCTTCGG	0.058 ± 0.028
AAAGGAAA	-0.041 ± 0.03
ATGTAACA	0.101 ± 0.044
CTCGGCGA	-0.0993 ± 0.029

Sequence	PBM E-score of 8-mer
GTGTTTCA	0.184 ± 0.031
GCTATAAC	0.0477 ± 0.024
AGGAAGGC	-0.131 ± 0.03
GCCTGAAC	-0.2927 ± 0.0014
CCCCACCC	0.043 ± 0.035
CCCTACGC	0.00649 ± 0.0033
CTTCAGAA	-0.231 ± 0.037
GGGCCACC	-0.119 ± 0.054
AAATCTAA	0.0207 ± 0.011
AGTTTTGA	0.0783 ± 0.18
ACTCCAAC	0.0965 ± 0.02
GATCCTCC	-0.00438 ± 0.035
ACTCTAAT	-0.176 ± 0.017
GCAGCAAA	-0.0315 ± 0.052
GGGATTGA	-0.166 ± 0.017
CGGGGGGC	-0.265 ± 0.051
GGGCCCAA	-0.154 ± 0.022
CACGTGTC	0.385 ± 0.0079
GTGCCAGA	0.264 ± 0.0078
GGTATGCA	-0.000535 ± 0.05
CGGTATAC	-0.0592 ± 0.023
AGAGGCCT	-0.304 ± 0.0057
ATCGATGG	-0.127 ± 0.0068
AAGGTTGC	-0.124 ± 0.038
GCCTCACC	0.0769 ± 0.049

Sequence	PBM E-score of 8-mer
GGCTCGAC	-0.0066 ± 0.043
CAGTATGC	-0.0463 ± 0.087
TATCTCGA	-0.176 ± 0.061
AGTGTAAA	0.287 ± 0.081
CGCTTGGA	-0.218 ± 0.0055
GGCGTGTA	-0.00404 ± 0.066
ATCGTAAA	-0.0188 ± 0.098
GCAACGCA	0.175 ± 0.056
CTGGGTGA	0.0344 ± 0.14
CGGTGTCC	-0.00395 ± 0.072
TGCCCTAA	-0.202 ± 0.0062
AAGATAAC	-0.0219 ± 0.03
ACTTTTTA	-0.0453 ± 0.12
GCAGCGCC	0.188 ± 0.045
ACGTAGCT	-0.0936 ± 0.084
GCATAAAC	-0.0902 ± 0.15
ATCCTGTC	0.0676 ± 0.078
ATAGCTCA	-0.199 ± 0.061
AACATAGT	-0.245 ± 0.0077
CACTAAGA	0.0202 ± 0.013
CGGGCCAA	-0.0985 ± 0.065
AGCTGATA	0.0126 ± 0.061
AAAAAGAC	-0.0261 ± 0.09
TCAGACGA	-0.314 ± 0.0055
AAGAGGAC	-0.15 ± 0.031

Sequence	PBM E-score of 8-mer
CACATCAC	0.291 ± 0.023
CTAAGTAC	-0.0284 ± 0.1
AAGAGCGG	-0.123 ± 0.028
AGAGCAAT	-0.215 ± 0.018
TCACCCGA	0.0689 ± 0.025
CACCTTTC	0.411 ± 0.034
ATATTTAA	-0.214 ± 0.0091
GACATTGC	0.0492 ± 0.027
ATGGTCCC	-0.284 ± 0.0061
CGGTACTC	-0.255 ± 0.024
TACCATCA	-0.0204 ± 0.05
ATAATAAA	-0.255 ± 0.029
AGGGGACC	-0.326 ± 0.026
CGCTTTGA	-0.2292 ± 0.0011
CTAATACC	0.00336 ± 0.027
ATTAGTTG	-0.0682 ± 0.0052
GCCTACTA	-0.0394 ± 0.049
ACTAGTCC	-0.245 ± 0.081
AACTCGCG	0.291 ± 0.017
GGGTAAGA	-0.279 ± 0.04
GCGCAAGC	0.00178 ± 0.048
ACACCAGC	0.325 ± 0.018
ACGCTTAA	0.0761 ± 0.011
TAGACTCA	-0.14 ± 0.035
ACTCGGTC	-0.199 ± 0.034

Sequence	PBM E-score of 8-mer
CACAGCAA	0.00532 ± 0.082
ACTGCTAT	-0.0314 ± 0.0091
GTCCCCGA	-0.155 ± 0.039
CGACTCAA	0.011 ± 0.024
CGACGTAA	-0.133 ± 0.068
ACCGGTAT	-0.0446 ± 0.018
CGGTAAAC	-0.165 ± 0.1
AAGGTGGA	-0.0394 ± 0.074
AATGGCGC	0.143 ± 0.0098
ATCCTGAA	0.0691 ± 0.0076
AGACATCG	-0.27283 ± 0.00013
CGATTACA	0.0563 ± 0.058
ATGCCAAA	0.0661 ± 0.086
AGTCCATC	-0.166 ± 0.027
TATCGGAA	-0.0916 ± 0.042
AATCCCAG	-0.124 ± 0.028
CTAGCGAC	0.2 ± 0.013
GTCGCTTA	0.0744 ± 0.041
GTGCCCTA	-0.188 ± 0.013
CGTCGCGA	0.204 ± 0.042
ACCTGGCT	0.189 ± 0.066
AACATGAC	0.0932 ± 0.043
